# Experimental data: the supplement of paper PMC10126150
# Values marked as one replicate rest on one cluster of the flow cell; about a third of the high ones do not repeat.
# Tested on: ATP
# Experiment: switch fluorescence ratio, 500 uM ATP over buffer (Cy3 cluster intensity, sum of 5 cycles each) (fold (ratio)); higher = stronger signal-on switching upon ATP binding; sequences stand for … in TCGTCGGCAGCGTCAGATGTGTATAAGAGACAGTTTTTTTTTTTTTTTTTTTTTTTTT…TC
# Settings: aptamer strand: ATP DNA aptamer (quencher-CACCTGGGGGAGTATTGCGGAGGAAGG + anchor), 100 nM annealed; ATP concentration: 500 uM; one replicate
# How it was run: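 Five buffer/ATP imaging cycles were run on Cy3-labelled switching-strand clusters on a modified Illumina MiSeq flow-cell, with NaOH stripping and re-annealing between cycles. In each cycle, clusters annealed to 100 nM quencher-labelled ATP aptamer were imaged in selection buffer, then after 15 min with 500 uM ATP at 22 °C. Per cluster, the fluorescence ratio is summed target-cycle over summed buffer-cycle Cy3 intensity, averaged per switch-domain sequence. Only clusters within 100-1000 RFU were kept.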
# 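Note: ATP exposure 15 min at 22 °C before imaging.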
row,Sequence,switch fluorescence ratio
1,TCTGTGAAGT,0.985
2,CATGCAAGA,1.17
3,TGAGGCAGAT,1.11
4,CGGGTCAGTT,1.07
5,CTATGTGGAC,1.04
6,AATGTGTACC,1.02
7,GCGCTGACCT,1.16
8,TCCTGGGCCG,1.01
9,ATACTTTCAG,1
10,AGTCCGGGG,1.02
11,AGGCCCAGGG,1.04
12,GGGATAGTTC,1.08
13,TAACGAGGG,1.02
14,GAATAAGTAT,0.999
15,TTATTCTCTA,1
16,TTAGTTAATT,1.19
17,CATTGCTTGC,1.08
18,CAAGAAGTTC,0.997
19,CTGATATAGC,1
20,TTTTAGTTC,0.98
21,TCTCTTAAT,1.02
22,CTATAGCCCG,1.04
23,TTTGAAAGTA,0.999
24,AAGTATTTCT,1.04
25,CGAAGGGCGT,0.997
26,CGGAACTTAA,1.01

row,Sequence,switch fluorescence ratio
1,TTTTACTGTG,0.998
2,TGACTCCGT,1.29
3,TTCCAATTGT,1
4,TGATATGAA,1.04
5,GTGAAGACGC,1.05
6,TGCTAGTGTC,1.05
7,GATATATGTG,0.982
8,AAGGCCATTG,1.03
9,AGTTTATTGA,1.02
10,GCTTTAGGCA,0.983
11,TATAGCGGGC,1.04
12,CGCCCCA,1.42
13,TTACTGTGGA,1.01
14,TCTGACTAGG,0.997
15,TTTTCCAATC,1.96
16,AGCAGGTCGA,1.03
17,AACATTGACG,1.21
18,CATCAAATGA,1.01
19,GCTCCGGATT,2.95
20,AGTGTGGTTC,0.967
21,GTAAGATAAG,1.03
22,CGGGTCAACC,1.03
23,TGATTGCGGA,0.98
24,CAATCGGAAA,1.04
25,GTCACATCGA,1.02
26,GGGGTCTAC,0.984

row,Sequence,switch fluorescence ratio
1,CCGGTATAGT,1.36
2,CGAAGTCCAA,1.25
3,TGGCGAATCA,0.968
4,GTGCTCACTT,1.01
5,CCCGTCCATT,1.02
6,CAGAACCTGA,1.14
7,GAAAAAAAG,0.973
8,GGCAGCGGGC,0.977
9,TCTAAAGTAG,0.993
10,AATTTCGCTA,1.03
11,ATATAGGACC,1.02
12,TTGTTGACTA,0.975
13,ACAACAAATT,0.994
14,CTGTCTATTT,0.98
15,TGTGAGTACA,1.02
16,AGTCCTTCAC,1.24
17,ATCACCATAC,1.34
18,TTTAGTTCAA,1
19,TTTCTGACTT,1
20,AATAAGCATT,1.07
21,GACGCGCGCT,0.988
22,AGGCCGGGGC,1.02
23,ACACAGCTGT,0.997
24,TCGTCGGCAG,1.05
25,GAACGTTGGA,0.987
26,AAAGGACCTC,0.998

row,Sequence,switch fluorescence ratio
1,TAAAAGTTCT,1.04
2,TAGTGTGAGA,1.02
3,TCGAATTTGA,0.979
4,GAAAACAATC,0.985
5,GTCCTCAACC,1.02
6,TGGGCTTCTG,1.01
7,TCCCGTCCT,1.01
8,AGGATCAGT,1.03
9,GTTACCTGGA,1.14
10,GTGAGTTTGA,0.993
11,GCTCTCCCGT,1.14
12,ACAGGCGCGT,1.07
13,CAATCTCATT,1.02
14,CTCTCCCTAA,1.28
15,GAGTTGATAT,1
16,TTTATGCGTC,0.969
17,ACGGAGATGC,1.37
18,GTCCTTTTGC,1
19,CCATTCCTG,1.06
20,TTGTACCTG,1
21,CGCTGGGGCG,0.97
22,TATTAACT,1.01
23,CTCTGACCAG,1.01
24,GCGTAGTGGT,0.978
25,GAACTCGGGA,0.974
26,AGGCGAATTG,0.963

row,Sequence,switch fluorescence ratio
1,TGAGCATGTA,1.02
2,CATGTAAAGG,0.967
3,ACCCATATGG,1.05
4,GAGCCAGTCC,0.994
5,TCTCAAGTAT,1
6,CATGCGAGTT,1.04
7,CCCCAGGTTT,4.62
8,ACTCAAAATT,1.09
9,GAGTTTGCCC,0.994
10,TCGTCCTTGG,1.14
11,GTGATTTCAG,1.02
12,GTCTAAAGTT,1.01
13,AAATCTACAG,1.04
14,CATTAGGGAG,1.01
15,TCCAGGGAGC,1.04
16,CTGAGAAGGT,1.03
17,AAACCTGTTG,1.14
18,TAATTATCTA,1.02
19,CGATTCCTAA,0.994
20,CGAGGCGACA,1.18
21,CATGATTGAG,1.01
22,TCAAAGGGTA,1.01
23,GCTTCTGCTG,0.988
24,CGGCGAATGG,1.05
25,GGCTACTAC,1.25
26,AGTGCTAACG,1.24

row,Sequence,switch fluorescence ratio
1,CTTAGTTACA,1.03
2,GCAGCAACG,1.18
3,AGACTTCAGG,0.963
4,CGGGTGCAAC,0.993
5,GAACTGGGTC,0.999
6,CAAAGGATGG,0.987
7,GGACCCTTTG,1.03
8,ATACTTTATG,1.04
9,CTAAGCAGAC,2.09
10,GCCCGTACCT,1.11
11,CAGACAAATT,0.969
12,CTCAGGCTAG,0.995
13,CAATTGGTC,0.95
14,TACCTTCATT,1.19
15,TCGCGGCACT,1.79
16,CTATGTACAT,1.03
17,CTATTGATAT,1.02
18,CCTGATTTTT,1
19,TAAAAAGCGT,0.977
20,CGGCAGTCTA,0.973
21,TTGCTACAGA,1.04
22,ATCGCTGAAA,0.982
23,CGTTCATGTA,0.929
24,CCTCGTCGTT,1.09
25,TTCCCCTTTG,1.06
26,GTCAACGGAG,1.02

row,Sequence,switch fluorescence ratio
1,AGAGGGTTTA,1.01
2,AAAGGGGCCC,1.01
3,CCCTGCAAAG,5.79
4,CGTGCGGTGC,1.25
5,ATCTTATCTG,1.01
6,GGAGGTTACC,1.07
7,TCAATTAAAA,1
8,TAGTTTTAAT,0.988
9,AGCCGATTGC,1.03
10,TGGCCAGCCC,0.989
11,ACTTTGTTTG,1.02
12,ATGAAAGTAA,1.03
13,ATGGCCGCTG,1.03
14,GGCCGAAAAC,1
15,ATACTCTTTT,0.993
16,GTGAATCGCT,0.947
17,AGTGTCTCTA,0.978
18,CAAGGTTCCA,0.988
19,CCCGTCTCCC,1.57
20,GTCGTTAGCG,1.04
21,TTTCGAAAAT,0.995
22,TAAGCGGT,0.996
23,CTAATCGGGA,0.977
24,CTGCCACGAA,0.96
25,CAGTTTAAG,1.03
26,AATTTGTCGT,1.04

row,Sequence,switch fluorescence ratio
1,AAGTTTACGG,1.07
2,ACTTTTCGCT,1.02
3,CATTATTGAA,1.04
4,TTTTCGAGGA,0.98
5,AAACAGGAAT,1.02
6,TAGGGTAGGG,0.99
7,AAGTCGGGCG,1.04
8,ATGCGGTCAG,0.993
9,TCGAGTGGCG,0.987
10,TAGCGGACGT,1.01
11,GGAGGAACAG,1.03
12,CCTATGTTCT,0.999
13,TCCAGTA,0.982
14,GCTGTTTCAA,0.974
15,CTTCCTATGT,1.23
16,ATTGTCGATG,1.18
17,TGTTAAAATG,0.961
18,AGAACTTCGC,1.15
19,GGAGCAACC,3.75
